Reference: paper PMC8190280, “Structure and mechanism of the human NHE1-CHP1 complex” (Nature Communications, 2021)

Target: the molecule itself
Assay: cryo-EM structure; NHE1-CHP1^Na/7.5: co-expressed and co-purified complex in MSP1D1/POPC nanodiscs, 150 mM NaCl, pH 7.5; 3.3-Å map focused on the NHE1 TMD; CHP1 not resolved

B1: human sodium/proton exchanger 1 (NHE1) (natural protein)
chain: not shown
notes: human NHE1 (SLC9A1), 815 amino-acid residues, […]; cDNA amplified from an HEK293 cDNA library; model built for […] only; residues of the cleavage site may remain at the C-terminus; The sample migrated as core- and fully glycosylated forms (~95 and ~110 kDa); the true N-terminus was not determined; also called SLC9A1; Na+/H+ exchanger 1; source: HEK293F cells (BacMam baculovirus), co-expressed …
- stoichiometry N: 2
